The campaign covered roughly 370,000 compounds. About 150 (0.041%) were called active. The inconclusive results got no clear call from the source; some entries with a clear call stand among them for comparison. Calls follow the shape of the dose curve; as a rule, active = well fitted inhibition curve with a large enough effect; inconclusive = small, poorly fitted or top-dose-only effect; inactive = flat fitted curve, though single readings scatter. No potency is given beside an inconclusive call; the fits are too rough.
target: Beta-lactamase (Escherichia coli (strain K12)) (UniProt P00811); assay: qHTS Inhibitors of AmpC Beta-Lactamase (assay with detergent); conditions: AmpC hydrolysis of nitrocefin, absorbance 480 nm, 0.01% Triton; activity change, negative = inhibition: at 114 µM (top of the series); also: nearly all actives have a fitted effect of over 25% in size;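 as to activity change, negative = inhibition: 0% = no-compound wells and -100% = no-enzyme wells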
Sequence of UniProt P00811 (P00811 whole entry, looked up): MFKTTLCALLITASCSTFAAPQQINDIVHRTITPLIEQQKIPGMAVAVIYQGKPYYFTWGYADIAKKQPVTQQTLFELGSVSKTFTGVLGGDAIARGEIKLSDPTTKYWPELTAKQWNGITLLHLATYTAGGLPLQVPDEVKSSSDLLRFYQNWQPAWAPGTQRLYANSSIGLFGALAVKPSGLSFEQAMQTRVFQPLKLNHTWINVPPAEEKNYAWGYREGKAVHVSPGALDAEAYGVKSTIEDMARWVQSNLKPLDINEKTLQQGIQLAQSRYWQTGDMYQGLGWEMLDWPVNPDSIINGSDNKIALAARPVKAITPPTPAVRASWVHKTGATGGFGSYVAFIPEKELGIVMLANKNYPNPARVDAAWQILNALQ
Summary of the method: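 AmpC (5.3 nM in the dispensed reagent) in 20 mM phosphate pH 7.0 with 0.01% (detergent screen) or 0.0001% Triton X-100 was preincubated with compounds for 15 min at room temperature. Nitrocefin was then added from an 800 uM solution, and hydrolysis was followed at 480 nm.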
Potency is read from the fitted curve at half-maximal effect; tags tell the direction and shape of the fitted curve.

**Q.** For `COC(=O)c1ccc(NC(=S)N2CCN(C)CC2)cc1`, which Potency is on record?
**A.** inconclusive [inhibitor, partial curve]

**Q.** Which Potency does the source give for `Cc1ccc(C(=O)NC2CCN(Cc3ccccc3)CC2)cc1S(=O)(=O)N1CCOCC1` here?
**A.** inconclusive [inhibitor, full curve, poor fit]

**Q.** For `O=C(NC1CCCc2ccccc21)c1ccc(S(=O)(=O)N2CCOCC2)cc1` (stereo not drawn), which Potency is on record?
**A.** inconclusive [inhibitor, full curve]

**Q.** For `COC(=O)Cc1c(OC)ccn(CCc2c[nH]c3ccccc23)c1=O`, which Potency is on record?
**A.** inconclusive [inhibitor, full curve, poor fit]

**Q.** With `COc1cc(OC)c(NC(=O)C2CCN(S(=O)(=O)c3ccc4c(c3)CC(C)N4C(C)=O)CC2)cc1Cl` (stereo not drawn) as the molecule, how does the “activity change, negative = inhibition” value read?
**A.** inactive: -14.1%

**Q.** For `O=C(CSc1nc2c(cnn2-c2ccc(F)cc2)c(=O)[nH]1)N1CCCCC1`, which Potency is on record?
**A.** inconclusive [inhibitor, full curve, poor fit]

**Q.** How did the “activity change, negative = inhibition” value turn out when `O=C(CSc1nc2ncccc2[nH]1)NCc1ccccc1` was run?
**A.** inactive: 5.62%

**Q.** `CCN(C(=O)Cc1c(C(=O)O)[nH]c2ccccc12)c1cc(OC)ccc1OC` was tested. Which Potency did it give?
**A.** inconclusive [inhibitor, single point]

**Q.** With `COC(=O)C(Cc1c[nH]c2ccccc12)NC(=O)c1cc(-c2ccc(OC)c(OC)c2)oc1C` (stereo not drawn) as the molecule, how does the Potency read?
**A.** inconclusive [inhibitor, single point]

**Q.** `O=C(COC(=O)c1cc([N+](=O)[O-])ccc1N1CCOCC1)Nc1c(Cl)cccc1Cl` was tested. Which Potency did it give?
**A.** inconclusive [inhibitor, full curve, poor fit]

**Q.** How did the Potency turn out when `CC(=O)c1ccc(NC(=O)CCCC(=O)c2ccccc2)cc1` was run?
**A.** inconclusive [inhibitor, single point]

**Q.** How did the “activity change, negative = inhibition” value turn out when `CC(=O)c1cc2ccccc2oc1=O` was run?
**A.** inactive: 4.89%

**Q.** For `O=C(c1ccc(Cl)cc1)N1CCC2(CC1)OCCO2`, which Potency is on record?
**A.** inconclusive [inhibitor, full curve]

**Q.** For `CCCc1ncc(CN2CCC(C(=O)Nc3cccc(-c4cscn4)c3)CC2)cn1`, which Potency is on record?
**A.** inconclusive [inhibitor, full curve, poor fit]

**Q.** `COc1cc(-c2nc3cnccc3n2C)cc(OC)c1OC` was tested. Which Potency did it give?
**A.** inconclusive [inhibitor, full curve, poor fit]

**Q.** For `CN1CCN(c2ccc(-c3cccc(NC(=O)COc4ccc(Cl)cc4Cl)c3)nn2)CC1`, which “activity change, negative = inhibition” value is on record?
**A.** inactive: -6.13%

**Q.** `CCCCCCNc1ncnc2c1sc1nc(N3CCOCC3)c3c(c12)CCCC3` was tested. Which “activity change, negative = inhibition” value did it give?
**A.** inactive: 24.9%

**Q.** With `CN(CC(=O)NCCc1ccccc1)S(=O)(=O)c1cccc2nsnc12` as the molecule, how does the Potency read?
**A.** inconclusive [inhibitor, full curve, poor fit]

Reference: PubChem BioAssay AID485294 (National Center for Advancing Translational Sciences (NCATS), 2010)
